Assay results as given in the supplement of paper PMC10338343.
± gives the standard deviation. The entries are a selection whose mix differs from that of the whole data set.

What follows are sequences tested on MIWI (PIWIL1) piRISC loaded with L1MC piRNA (30 nt) (assay: pre-steady-state target cleavage rate (min^-1); MIWI and MILI are mouse PIWI proteins and EfPiwi is from a freshwater sponge; tags in brackets are library labels; higher = faster piRNA-guided slicing of the target). Conditions: guide: L1MC piRNA 5'p-UAACUAAAUACUAUGCAAGCUGUAGGUCCU; auxiliary factor: 500 nM mouse GTSF1.
Procedure, shortened: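 The pre-steady-state cleavage rate was derived from a burst-and-steady-state fit of Cleave-'n-Seq data. For these assays, 1 nM active affinity-purified piRISC loaded with a single synthetic guide was mixed with […] a transcribed, DNA-blocked target RNA library in HEPES–potassium acetate buffer at 33 °C, with or without 500 nM GTSF1 partner protein, for 0–8 or 0–960 min. Sequencing counts of uncleaved targets were normalised to depth and to weakly complementary targets, and k3 was capped at 0.0001 min^-1 after three trials were pooled.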
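Note: 1 nM active piRISC with 0.1 nM target library at 33 °C single turnover.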

Sequence | pre-steady-state target cleavage rate
UCCUGGAUCUCCUUGCAUAGUAUUUUCAAA | 0.0569 ± 0.011
UCCUGGUACAGCUUGCAUAGUAAUUACAAA | 0.0727 ± 0.021
UGGACCUACAGCUUGCAUAGUAUUAUCAAA | 0.212 ± 0.039
UCCUGGUACAGCUUGCAUCAGUAUUUAGUUA | 0.0104 ± 0.0051
UCGACCUACAGGAUGCAUAGUAUUUAGAAA | 0.43 ± 0.058
UCCUGGAACAGCUUGCAUACAAUUUAGUUA | 0.0117 ± 0.0047
UCCUGCUACAGCUUGCAUAGUAUAUACAAA | 0.248 ± 0.039
UCCUGGAUGUCGGUGCAUAGUAUUUAGUUA | 0.00478 ± 0.0028
UCCUGGAACAGCUUGCAUAGUAUUUGUUA | 0.177 ± 0.031
UCCUGCUACUCCUUGCAUAGUAUUUAGAAA | 0.0975 ± 0.018
UCCUGGAUGUCGAACGUAUGUUUUUUGUUA | < 0.0001
UCCUGCUACUCCUUGCAUAGUAUUUUCAAA | 0.115 ± 0.026
UCCUGCUACAGCUUGCAUAGUAAUAAGUUA | 0.364 ± 0.037
UCCUCCUACAGCUUCCAAAGUAUUUAGUUA | 0.42 ± 0.035
UCCUGGAUGUCGAACGUAAGUAAAUAGUUA | < 0.0001
UCCUGGAUGUGGUUGCAUAGUAUUUAGAUA | 0.00533 ± 0.0039
UCGACCUACAGCUAGCAUAGUAUUUACAAA | 0.377 ± 0.041
UCCAGCUACAGCUUGCAUAGUAUUUUCAAA | 0.396 ± 0.052
UCCUGGAUGUCCUUGCAUAGUAAUUACUUA | 0.00665 ± 0.0043

Sequence | pre-steady-state target cleavage rate
UGGACCUACAGCUUGCAUAGUAUUAUGUAA | 0.0131 ± 0.0045
UCCUGGAACAGCUUCCAUAGUAAUUAGUUA | 0.0147 ± 0.0069
UCCUGGAACAGCUUGCAUAGUAUAUAGAAA | 0.203 ± 0.035
UCCUCCUACAGCUUGGUUAGUAUUUAGAAA | 0.172 ± 0.029
UCCUGGAUGACCUAGCAUAGUAUUUAGUUA | 0.0593 ± 0.013
UCCUGCUAGAGCUUCCAUAGUAUUUAGUUA | 0.333 ± 0.079
UCCUGCUACUCGUUGCAUAGUAUUUACAAA | 0.0303 ± 0.0091
UCCUCCUACAGCUUGCAUACAUUUUAGUAA | 0.0053 ± 0.0046
UCCUGGUACAGCUUGCAUAGUAUUAUCAAA [g7:g24:cont:t1A] | 0.124 ± 0.024
AGGACCUACAGCUUGCUAAGUAUUUACAAA | 0.0701 ± 0.02
UCCUGGAUGUCCUUAGCAUAGUAUUUAGUUA | 0.0262 ± 0.009
UCCUGGAUGUCGAAGCAUAGUAUUUAGUUUA | 0.00467 ± 0.0032
UCGACCUACAGCUUGCAUUGUAUUUACAAA | 0.154 ± 0.026
UCCUGGAUGUCGAACGAUAGUAUUUAAGUUA | < 0.0001
UCCUGGAUGAGCUUGCAAUAGUAUUUAGUUA | 0.00429 ± 0.0028
UCCUGGAUCAGCUUGCAUAGUAUAAUCAAA [g8:g22:cont:t1A] | 0.0365 ± 0.013
UCCUGGAUGUCGAAGGAAAGUAUUUAGUUA | < 0.0001
UCCUGGAUCUCCUUGCAUAGUAUUUAGAAA | 0.188 ± 0.044
